Data on 30 molecules can be found in the antibiotic and cytotoxicity screens of Wong et al. (2023).

The list shows a part of the results.

This experiment deals with HSkMC (human skeletal muscle cells). As to the kind of experiment: cytotoxicity call (relative viability < 0.9). Conditions: 10 µM.
Turning to `CC1(C)SCN(S(=O)(=O)c2ccccc2)[C@@H]1C(=O)N[C@@H](CNC(=O)NCc1ccccc1)C(=O)O`, the cytotoxicity call was “inactive”.
For the molecule `C[C@@H]1CN([C@H](C)CO)C(=O)Cc2cc(NC(=O)Nc3ccc(F)cc3)ccc2O[C@H]1CN(C)CC1CCCCC1`, the cytotoxicity call is “inactive”.
For the molecule `COc1ccc(S(=O)(=O)N(C)C[C@H]2OCCCC[C@@H](C)Oc3ccc(NS(=O)(=O)c4ccc(Cl)cc4)cc3C(=O)N([C@H](C)CO)C[C@@H]2C)cc1`, the cytotoxicity call is “inactive”.
Regarding `C[C@@H]1CN([C@@H](C)CO)C(=O)c2cc(NC(=O)Nc3ccccc3)ccc2O[C@@H](C)C/C=C/CO[C@H]1CN(C)S(=O)(=O)c1ccc(F)cc1`, the cytotoxicity call is “inactive”.
`C[C@H](CO)N1C[C@H](C)[C@@H](CN(C)Cc2ccccc2)OCCCC[C@H](C)Oc2ccc(NC(=O)c3ccccc3)cc2C1=O`: the cytotoxicity call is “inactive”.
Turning to `CCCN(C)C[C@@H]1OCCCC[C@@H](C)Oc2ccc(NS(C)(=O)=O)cc2C(=O)N([C@H](C)CO)C[C@H]1C`, the cytotoxicity call is “inactive”.
Regarding `COCC(=O)Nc1ccc2c(c1)C(=O)N(C)[C@@H]1CC[C@H](CC(=O)NCc3ccc(OC)cc3)O[C@@H]1CO2`, the cytotoxicity call is “inactive”.
Next, `C[C@@H]1CN([C@@H](C)CO)C(=O)c2cc(-c3ccc(C(=O)N(C)C)cc3)cnc2O[C@H]1CN(C)C(=O)CN(C)C`: “inactive”; `Cc1ccc(S(=O)(=O)N(C)C[C@H]2Oc3ccc(NC(=O)CCCN(C)C)cc3C(=O)N([C@H](C)CO)C[C@@H]2C)cc1`: “inactive”; `C[C@@H]1CN([C@H](C)CO)C(=O)Cc2cc(NS(=O)(=O)c3ccc(Cl)cc3)ccc2O[C@@H]1CN(C)C(=O)Nc1cccc2ccccc12`: “inactive”.
Next, `COc1ccc(-c2cnc3c(c2)C(=O)N([C@H](C)CO)C[C@H](C)[C@H](CN(C)C(=O)Cc2cccnc2)O3)cc1`: “inactive”.
`C=CCOC(=O)[C@H]1[C@@H]2C(=O)O[C@@H](c3ccccc3)[C@@H](c3ccccc3)N2[C@@H](c2ccc(OCCOC(=O)[C@@H]3C[C@@H]4C(=O)NCC(=O)N4[C@@H]3c3cccc(OCCO)c3)cc2)[C@]12C(=O)Nc1ccc(I)cc12`: the cytotoxicity call is “inactive”.
Next, `Oc1cc(O)cc(O)c1`: “inactive”.
On to `CCOC(=O)CC1=NC(=O)CS1`, for which the cytotoxicity call was “inactive”.
Consider `C[C@H]1CN([C@@H](C)CO)C(=O)c2cccc(NC(=O)CCCCCC(=O)Nc3ccccc3N)c2O[C@H]1CN(C)S(C)(=O)=O`, for which the cytotoxicity call is “inactive”.
Take `C[C@H]1CN([C@@H](C)CO)S(=O)(=O)c2ccc(C#CC3(O)CCCC3)cc2O[C@H]1CN(C)C(=O)Nc1cccc(F)c1`: the cytotoxicity call was “inactive”.
As for `COc1ccc(S(=O)(=O)N(C)C[C@H]2Oc3ccc(NC(=O)Nc4c(C)noc4C)cc3CC(=O)N([C@@H](C)CO)C[C@H]2C)cc1`, the entry is “inactive”; as for `O=c1[nH]cnc2c1ncn2C1OC(CO)C(O)C1O` (stereo not given), “inactive”.
On to `C[C@@H]1CN([C@H](C)CO)C(=O)c2cc(NC(=O)Cc3cn(C)c4ccccc34)ccc2O[C@@H]1CN(C)C(=O)Nc1ccc(C(F)(F)F)cc1`, for which the cytotoxicity call was “inactive”.
In the case of `Cc1ccc(S(=O)(=O)N(C)C[C@H]2Oc3ccc(NC(=O)Nc4cccc5ccccc45)cc3C(=O)N([C@H](C)CO)C[C@@H]2C)cc1`, the cytotoxicity call is “inactive”.
In the case of `C[C@H](CO)N1C[C@H](C)[C@H](CN(C)S(=O)(=O)c2cccs2)Oc2ccc(NS(=O)(=O)c3ccccc3)cc2C1=O`, the cytotoxicity call is “inactive”.
Turning to `C[C@@H]1CCCCO[C@@H](CN(C)Cc2ccccc2)[C@@H](C)CN([C@H](C)CO)C(=O)c2cc(NC(=O)Cc3ccccc3)ccc2O1`, the cytotoxicity call is “inactive”.
Turning to `COc1ccccc1-c1cnc2c(c1)C(=O)N([C@H](C)CO)C[C@H](C)[C@H](CN(C)C(=O)c1ccncc1)O2`, the cytotoxicity call is “inactive”.
As for `CCOC(=O)[C@@H](C)n1ncn2cccc2c1=O`, the entry is “inactive”.
As for `Cc1ccc(S(=O)(=O)N(C)C[C@H]2Oc3ccc(NS(=O)(=O)c4cccs4)cc3C(=O)N([C@@H](C)CO)C[C@H]2C)cc1`, the entry is “inactive”.
In the case of `O=c1[nH]cc(F)c(=O)[nH]1`, the cytotoxicity call was “inactive”.
For `CO[C@H]1CN(C)C(=O)c2cc(NS(=O)(=O)CC(F)(F)F)ccc2OC[C@@H](C)N(C(=O)c2ccc3c(c2)OCO3)C[C@@H]1C`, the cytotoxicity call was “inactive”.
`CN(C)Cc1cn(CC[C@@H]2CC[C@@H](NS(=O)(=O)c3ccccc3)[C@@H](CO)O2)nn1`: the cytotoxicity call is “inactive”.
As to `C[C@@H]1CCCCO[C@H](CN(C)C(=O)NC2CCCCC2)[C@H](C)CN([C@H](C)CO)C(=O)c2cc(NC(=O)Nc3cccc4ccccc34)ccc2O1`, the cytotoxicity call is “inactive”.
Next, `C[C@@H]1CN([C@@H](C)CO)C(=O)c2cc(NC(=O)Cn3cnnn3)ccc2O[C@@H]1CN(C)S(=O)(=O)c1ccc(Cl)cc1`: “inactive”.
